{"source": "the supplement of paper PMC8728848", "assay_in_all_cases": "glycan array binding signal (z-score within array); higher = stronger binding", "conditions_in_all_cases": "glycan notation: IUPAC condensed, linker removed", "key": {"[1]": {"molecular_target": "Neu5Ac(a2-3)Gal(b1-4)GlcNAc(b1-6)GalNAc", "summary_of_the_method": "(§1)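 From the Consortium for Functional Glycomics database, 3228 arrays were curated, keeping only those whose protein sequence was available. Binding is given as a within-array Z-score averaged across arrays sharing a protein sequence and across linkers. Negative Z-scores can be read as non-binding.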"}, "[2]": {"molecular_target": "Neu5Ac(a2-3)Gal(b1-4)GlcNAc(b1-6)[Gal(b1-3)]GalNAc", "summary_of_the_method": "as §1"}, "[3]": {"molecular_target": "Neu5Ac(a2-3)Gal(b1-4)GlcNAc(b1-6)[Neu5Ac(a2-3)Gal(b1-3)]GalNAc", "summary_of_the_method": "as §1"}, "[4]": {"molecular_target": "Neu5Ac(a2-3)Gal(b1-4)GlcNAc6S", "summary_of_the_method": "as §1"}, "[5]": {"molecular_target": "Neu5Ac(a2-3)Gal(b1-4)[Fuc(a1-3)]GlcNAc", "summary_of_the_method": "as §1"}, "[6]": {"molecular_target": "Neu5Ac(a2-3)Gal(b1-4)[Fuc(a1-3)]GlcNAc(b1-2)Man", "summary_of_the_method": "as §1"}, "[7]": {"molecular_target": "Neu5Ac(a2-3)Gal(b1-4)[Fuc(a1-3)]GlcNAc(b1-3)Gal", "summary_of_the_method": "as §1"}, "[8]": {"molecular_target": "Neu5Ac(a2-3)Gal(b1-4)[Fuc(a1-3)]GlcNAc(b1-3)Gal(b1-4)GlcNAc", "summary_of_the_method": "as §1"}, "[9]": {"molecular_target": "Neu5Ac(a2-3)Gal(b1-4)[Fuc(a1-3)]GlcNAc(b1-3)Gal(b1-4)[Fuc(a1-3)]GlcNAc(b1-3)Gal(b1-4)[Fuc(a1-3)]GlcNAc", "summary_of_the_method": "as §1"}, "[10]": {"molecular_target": "Neu5Ac(a2-3)Gal(b1-4)[Fuc(a1-3)]GlcNAc(b1-3)GalNAc", "summary_of_the_method": "as §1"}, "[11]": {"molecular_target": "Neu5Ac(a2-3)Gal(b1-4)[Fuc(a1-3)]GlcNAc(b1-6)[Gal(b1-3)]GalNAc", "summary_of_the_method": "as §1"}, "[12]": {"molecular_target": "Neu5Ac(a2-3)Gal(b1-4)[Fuc(a1-3)]GlcNAc(b1-6)[Neu5Ac(a2-3)Gal(b1-3)]GalNAc", "summary_of_the_method": "as §1"}, "[13]": {"molecular_target": "Neu5Ac(a2-3)Gal(b1-4)[Fuc(a1-3)]GlcNAc6S", "summary_of_the_method": "as §1"}, "[14]": {"molecular_target": "Neu5Ac(a2-3)Gal6S(b1-4)GlcNAc", "summary_of_the_method": "as §1"}, "[15]": {"molecular_target": "Neu5Ac(a2-3)Gal6S(b1-4)[Fuc(a1-3)]GlcNAc", "summary_of_the_method": "as §1"}, "[16]": {"molecular_target": "Neu5Ac(a2-3)GalNAc", "summary_of_the_method": "as §1"}, "[17]": {"molecular_target": "Neu5Ac(a2-3)GalNAc(b1-4)GlcNAc", "summary_of_the_method": "as §1"}, "[18]": {"molecular_target": "Neu5Ac(a2-3)[GalNAc(b1-4)]Gal(b1-4)Glc", "summary_of_the_method": "as §1"}, "[19]": {"molecular_target": "Neu5Ac(a2-3)[GalNAc(b1-4)]Gal(b1-4)GlcNAc", "summary_of_the_method": "as §1"}, "[20]": {"molecular_target": "Neu5Ac(a2-3)[GalNAc(b1-4)]Gal(b1-4)GlcNAc(b1-3)GalNAc", "summary_of_the_method": "as §1"}, "[21]": {"molecular_target": "Neu5Ac(a2-3)[Neu5Ac(a2-6)]GalNAc", "summary_of_the_method": "as §1"}, "[22]": {"molecular_target": "Neu5Ac(a2-6)Gal", "summary_of_the_method": "as §1"}, "[23]": {"molecular_target": "Neu5Ac(a2-6)Gal(b1-3)GlcNAc(b1-3)[Gal(b1-4)GlcNAc(b1-6)]Gal(b1-4)Glc", "summary_of_the_method": "as §1"}, "[24]": {"molecular_target": "Neu5Ac(a2-6)Gal(b1-4)Glc", "summary_of_the_method": "as §1"}, "[25]": {"molecular_target": "Neu5Ac(a2-6)Gal(b1-4)GlcNAc", "summary_of_the_method": "as §1"}, "[26]": {"molecular_target": "Neu5Ac(a2-6)Gal(b1-4)GlcNAc(b1-2)Man", "summary_of_the_method": "as §1"}, "[27]": {"molecular_target": "Neu5Ac(a2-6)Gal(b1-4)GlcNAc(b1-2)Man(a1-3)Man(b1-4)GlcNAc(b1-4)GlcNAc", "summary_of_the_method": "as §1"}, "[28]": {"molecular_target": "Neu5Ac(a2-6)Gal(b1-4)GlcNAc(b1-2)Man(a1-3)[Gal(b1-4)GlcNAc(b1-2)Man(a1-6)]Man(b1-4)GlcNAc(b1-4)GlcNAc", "summary_of_the_method": "as §1"}, "[29]": {"molecular_target": "Neu5Ac(a2-6)Gal(b1-4)GlcNAc(b1-2)Man(a1-3)[GlcNAc(b1-4)][Neu5Ac(a2-6)Gal(b1-4)GlcNAc(b1-2)Man(a1-6)]Man(b1-4)GlcNAc(b1-4)GlcNAc", "summary_of_the_method": "as §1"}, "[30]": {"molecular_target": "Neu5Ac(a2-6)Gal(b1-4)GlcNAc(b1-2)Man(a1-3)[Man(a1-6)]Man(b1-4)GlcNAc(b1-4)GlcNAc", "summary_of_the_method": "as §1"}}, "note": "The list shows a part of the results.", "data": [{"binder": "ClecSol-Fc (Cryptosporidium parvum) (protein) CPEGWISNGEKTRCFKLVTFDRPRTFSHGFKACNDLGGTEVETRRRNGSKETNEYPVTLASVYKLSDEEAIRRTLVEQGDIHKTANGCFVGLRKYAFFRYPPGWYWIDSGSPVSVRDSEINWTSSYNASWLLRFKFPFEKCGFFDIGGLGRRPCWLIDSELSCAVCGTVAYDSGGLNPNKYSELIKQTDEIISKEPKLDLPGYNNLNCTDAWENNLSVGLCQNVSNILDSAWSSYQSSLNFPSINFNWKEDSTNEGGDQVYHNSYLDLPRYKQKKTFYWDQDPGTIPALSDEMKLIGLSAQPTYHPLDRSSSGSFESDSTESGRANEERNDTLEEMIYKQSSDSIEDILVPVTKPIFSDYSSIGRNSGVEEVYSSNVSTISSKGVVFPNTTTSSDNDFTKNNPANSSKHTSTSTTTNTTTTTTRTTTTTTTTTTTTTTTTTTTTETTTTKKSTTATKNTTTT", "values": [{"measurement": "glycan array binding signal (z-score)", "setting": "[1]", "result": -0.11}, {"measurement": "glycan array binding signal (z-score)", "setting": "[2]", "result": 0.389}, {"measurement": "glycan array binding signal (z-score)", "setting": "[3]", "result": -0.19}, {"measurement": "glycan array binding signal (z-score)", "setting": "[4]", "result": -0.086}, {"measurement": "glycan array binding signal (z-score)", "setting": "[5]", "result": -0.268}, {"measurement": "glycan array binding signal (z-score)", "setting": "[6]", "result": 0.049}, {"measurement": "glycan array binding signal (z-score)", "setting": "[7]", "result": -0.271}, {"measurement": "glycan array binding signal (z-score)", "setting": "[8]", "result": -0.177}, {"measurement": "glycan array binding signal (z-score)", "setting": "[9]", "result": -0.027}, {"measurement": "glycan array binding signal (z-score)", "setting": "[10]", "result": -0.101}, {"measurement": "glycan array binding signal (z-score)", "setting": "[11]", "result": -0.215}, {"measurement": "glycan array binding signal (z-score)", "setting": "[12]", "result": -0.001}, {"measurement": "glycan array binding signal (z-score)", "setting": "[13]", "result": 0.031}, {"measurement": "glycan array binding signal (z-score)", "setting": "[14]", "result": -0.086}, {"measurement": "glycan array binding signal (z-score)", "setting": "[15]", "result": -0.22}, {"measurement": "glycan array binding signal (z-score)", "setting": "[16]", "result": 0.005}, {"measurement": "glycan array binding signal (z-score)", "setting": "[17]", "result": -0.194}, {"measurement": "glycan array binding signal (z-score)", "setting": "[18]", "result": -0.247}, {"measurement": "glycan array binding signal (z-score)", "setting": "[19]", "result": -0.146}, {"measurement": "glycan array binding signal (z-score)", "setting": "[20]", "result": -0.253}, {"measurement": "glycan array binding signal (z-score)", "setting": "[21]", "result": 0.394}, {"measurement": "glycan array binding signal (z-score)", "setting": "[22]", "result": -0.025}, {"measurement": "glycan array binding signal (z-score)", "setting": "[23]", "result": 0.015}, {"measurement": "glycan array binding signal (z-score)", "setting": "[24]", "result": 0.133}, {"measurement": "glycan array binding signal (z-score)", "setting": "[25]", "result": -0.082}, {"measurement": "glycan array binding signal (z-score)", "setting": "[26]", "result": -0.014}, {"measurement": "glycan array binding signal (z-score)", "setting": "[27]", "result": -0.187}, {"measurement": "glycan array binding signal (z-score)", "setting": "[28]", "result": -0.229}, {"measurement": "glycan array binding signal (z-score)", "setting": "[29]", "result": -0.193}, {"measurement": "glycan array binding signal (z-score)", "setting": "[30]", "result": 0.095}]}]}
